Experimental data taken from PubChem BioAssay (NCATS).
Where “and” joins values, the source holds several entries; their conditions need not be identical. Identical values can stand only once. This list was built around the results that the source calls inconclusive (neither active nor inactive); the mix of calls is not that of the screen. A potency beside an inconclusive call is a rough fit, not a confirmed value. Calls of active or inactive are those of the source. The call rests on the fitted dose curve; in most records, active means well fitted curve in the direction sought with a large enough effect; inconclusive means small, poorly fitted or top-dose-only effect, or another doubt; inactive means no such curve, though single readings can be large; an effect the other way counts as inactive or inconclusive.

Key:
[1] = Viability qHTS for spleen associated tyrosine kinase inhibitor (SYKi) naive MV4-11 cells (AID 1963823); settings: MV4-11 AML viability, CellTiter-Glo luminescence, 72 h; series mostly up to 45 µM; further: nearly all actives have a fitted effect of over 40% in size
Procedure, shortened: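 Seeding of 500 SYKi-naive MV4-11 cells per well onto pre-dispensed compounds preceded a 72 hr incubation at 37 C. Luminescent CellTiter-Glo signal, read after 10 min at room temperature, reflected viable cells.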

[2] = Viability qHTS for spleen associated tyrosine kinase inhibitor (SYKi) drug resistant MV4-11 cells (AID 1963824); further: nearly all actives have a fitted effect of over 35% in size
Procedure, shortened: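 CellTiter-Glo luminescence, read 10 min after reagent addition, reports viability after a 72 hr compound exposure. Cells are an MV4-11 line made resistant to SYK inhibition, seeded at 500 per well onto compound-containing plates.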

[3] = Quantitative highthroughput screen to assess conditional lethalithy of NOMO1 cells grown in RPMI1640 with dialyzed fetal bovine serum (RPMI+ds) (AID 1963877); further: nearly all actives have a fitted effect of over 30% in size
Procedure, shortened: (§1)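 Each medium arm—HPLM with 10% dialyzed FBS, or RPMI1640 with 5 mM glucose and 10% untreated or dialyzed FBS—was screened against an 11-point, 3-fold compound titration for 48 h at 37 °C, with CellTiter-Glo luminescence as endpoint.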

[4] = Quantitative highthroughput screen to assess conditional lethalithy of NOMO1 cells grown in Human Plasma-Like Medium with dialyzed fetal bovine serum (HPLM+ds) (AID 1963878); settings: NOMO1 AML cells in HPLM+ds, CellTiter-Glo viability, 48 h; viability: at 45.8 µM (top of the series); further: nearly all actives have a fitted effect of over 35% in size
Procedure, shortened: as §1

[5] = Quantitative highthroughput screen to assess conditional lethalithy of P12 Ichikawa cells grown in Human Plasma-Like Medium with dialyzed fetal bovine serum (HPLM+ds) (AID 1963879); settings: Potency: viability; further: nearly all actives have a fitted effect of over 35% in size
Procedure, shortened: as §1

[6] = Quantitative highthroughput screen to assess conditional lethalithy of SEM cells grown in RPMI1640 with unreated serum (RPMI+s) (AID 1963883); settings: SEM B-ALL cells, CellTiter-Glo viability, 48 h; viability: at 45.8 µM (top of the series); further: nearly all actives have a fitted effect of over 35% in size
Procedure, shortened: as §1

[7] = Quantitative highthroughput screen to assess conditional lethalithy of SEM cells grown in RPMI1640 with dialyzed fetal bovine serum (RPMI+ds) (AID 1963884); settings: SEM B-ALL cells, RPMI+dialyzed FBS, CellTiter-Glo viability, 48 h; viability: at 45.8 µM (top of the series); further: nearly all actives have a fitted effect of over 35% in size
Procedure, shortened: as §1

[8] = Cellular viability qHTS for adrenocortical cancer (ACC) cell line SW-13 (AID 1963989); settings: SW-13 ACC cells viability, CellTiter-Glo, 48 h; activity (max response): stronger effect = lower value; further: nearly all actives have a fitted effect of over 65% in size
Procedure, shortened: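 48 h treatment, SW-13 in ITS/DMEM serum-free; doses up to 46 uM; readout CellTiter-Glo luminescence; curve fit four-parameter logistic.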

[9] = Cellular viability qHTS for adrenocortical cancer (ACC) cell line NCI-H295R (AID 1963990); settings: CellTiter-Glo ATP luminescence, 48 h; series mostly up to 46.1 µM; further: nearly all actives have a fitted effect of over 60% in size
Procedure, shortened: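 Compound titrations (up to 46 uM final) are applied to NCI-H295R cultures for 48 h at 37C. Viable cell number is estimated by CellTiter-Glo signal, normalised to DMSO and doxorubicin controls.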

[10] = Quantitative highthroughput screen to assess conditional lethalithy of P12 Ichikawa cells grown in RPMI1640 with dialyzed fetal bovine serum (RPMI+ds) (AID 1963880); settings: Potency: P12-Ichikawa viability; further: nearly all actives have a fitted effect of over 35% in size
Procedure, shortened: as §1

[11] = Quantitative highthroughput screen to assess conditional lethalithy of P12 Ichikawa cells grown in RPMI1640 with untreated serum (RPMI+s) (AID 1963881); settings: Potency: viability; further: nearly all actives have a fitted effect of over 35% in size
Procedure, shortened: as §1

[12] = Quantitative highthroughput screen to assess conditional lethalithy of SEM cells grown in Human Plasma-Like Medium with dialyzed fetal bovine serum (HPLM+ds) (AID 1963882); further: nearly all actives have a fitted effect of over 35% in size
Procedure, shortened: as §1
Potency means the concentration at half of the fitted maximal effect; tags describe the fitted curve by direction and shape.

| SMILES | Potency [1] | Potency [2] | Potency [3] | Potency [4] | Potency [5] | Potency [6] | Potency [7] | Potency [8] | Potency [9] | Potency [10] | Potency [11] | Potency [12] |
| --- | --- | --- | --- | --- | --- | --- | --- | --- | --- | --- | --- | --- |
| CC(C)c1ccccc1Cc1cc(C(=O)Nc2ccc(S(=O)(=O)c3ccccc3C(C)(C)C)cc2)c(O)c(O)c1O | inconclusive: 8.33 µM [cytotoxic, full curve] | active: 7.42 µM | inactive | inactive | inactive | inactive | inconclusive: 9.35 µM [cytotoxic, single point] | inconclusive: 31.6 µM [cytotoxic, single point] | inconclusive: 31.6 µM [cytotoxic, single point] |  |  |  |
| N#Cc1ccnc(N2C(=O)CC[C@H]2C(=O)N(c2cncc(F)c2)[C@H](C(=O)NC2CC(F)(F)C2)c2ccccc2Cl)c1 | inconclusive: 6.51 µM [cytotoxic, single point] and inactive | inconclusive: 4.11 µM [cytotoxic, full curve, poor fit] and inconclusive: 20.9 µM [cytotoxic, partial curve] | inconclusive: 3.71 µM [cytotoxic, full curve] | inconclusive: 0.831 µM [cytotoxic, full curve] |  |  |  |  | inactive | inconclusive: 3.71 µM [cytotoxic, full curve] |  |  |
| Cc1cn([C@@H]2C[C@@H](O)[C@H](CO)O2)c(=O)[nH]c1=O | inactive | inactive | inconclusive: 37.2 µM [cytotoxic, single point] |  | active: 23.5 µM | inconclusive: 14.8 µM [cytotoxic, partial curve, poor fit] | inconclusive: 9.35 µM [cytotoxic, partial curve, poor fit] |  | inactive |  | active: 26.4 µM | inconclusive: 16.6 µM [cytotoxic, partial curve, poor fit] |
| O=C(CCCCCCC(=O)Nc1ccccc1)NO | inconclusive: 1.06 µM [cytotoxic, full curve] and active: 1.64 µM and active: 1.48 µM | inconclusive: 1.06 µM [cytotoxic, full curve] | active: 16.6 µM |  | active: 4.18 µM |  | active: 3.32 µM |  | active: 820 nM and active: 1 µM | active: 3.32 µM |  |  |
| Cc1c(Cn2c(C)nc3c(C(=O)O)cc(N4CCOCC4)cc32)cccc1C(F)(F)F | inconclusive: 7.31 µM [cytotoxic, partial curve] and inconclusive: 833 nM [cytotoxic, full curve] | inconclusive: 461 nM [cytotoxic, full curve, poor fit] and inconclusive: 7.42 µM [cytotoxic, partial curve] | inactive | active: 26.4 µM |  | inactive | inactive |  |  |  |  | inactive |
| CC[C@@H](C)[C@H](NC(=O)[C@H](CC1CCCCC1)NC(=O)c1ccno1)C(=O)N1CCC2(CCc3ccccc32)CC1 | active: 13 µM and inconclusive: 16.6 µM [cytotoxic, partial curve] | inconclusive: 11.8 µM [cytotoxic, partial curve] | inactive |  | inactive | inconclusive: 0.001 µM | inconclusive: 0.001 µM |  |  |  | inactive | inconclusive: 0.0012 µM [rising, full curve, poor fit] |
| Cc1[nH]c(=O)c(C#N)cc1-c1ccncc1 | inconclusive: 770 nM [cytotoxic, full curve, poor fit] and inactive | inconclusive: 1.37 µM [cytotoxic, partial curve, poor fit] and inactive | inconclusive: 23.5 µM [cytotoxic, single point] |  | inconclusive: 37.2 µM [cytotoxic, single point] |  | inactive |  | inactive | inconclusive: 33.2 µM [cytotoxic, single point] | inconclusive: 37.2 µM [cytotoxic, single point] |  |
| CC(C)(C)C(=O)Oc1ccc2c(c1)nc(NC(=O)c1cccc([N+](=O)[O-])c1)n2CCCO | active: 4.68 µM | active: 9.34 µM | inactive |  | inactive | inactive | inactive |  | inactive |  | inactive | inactive |
| CC(C)NCC(O)COc1ccc(CCOCC2CC2)cc1 (centres undefined) | inconclusive: 0.0009 µM | inconclusive: 0.0009 µM | inconclusive: 26.4 µM [cytotoxic, single point] | active: 16.6 µM |  | inactive | inactive | inconclusive: 35.5 µM [cytotoxic, partial curve, poor fit] |  |  |  | inactive |
| c1ccc(-c2nn3c(c2-c2ccnc4cc(OCCN5CCOCC5)ccc24)CCC3)nc1 | inconclusive: 20.9 µM [cytotoxic, partial curve] | inconclusive: 23.5 µM [cytotoxic, partial curve] | inconclusive: 0.0012 µM [rising, full curve] |  | inactive | inactive | inconclusive: 0.0015 µM [rising, full curve] | inconclusive: 25.1 µM [cytotoxic, single point] |  |  | inactive | inconclusive: 0.0021 µM [rising, full curve] |
| COc1cc2nccc(Oc3ccc(NC(=O)Nc4cc(C)on4)c(Cl)c3)c2cc1OC | inconclusive: 366 nM [cytotoxic, full curve] and active: 372 nM | inconclusive: 731 nM [cytotoxic, full curve] and active: 833 nM | inconclusive: 37.2 µM [cytotoxic, single point] |  | inconclusive: 33.2 µM [cytotoxic, single point] |  |  | active: 11.2 µM | active: 14.1 µM | inconclusive: 26.4 µM [cytotoxic, single point] | inconclusive: 29.6 µM [cytotoxic, single point] | inconclusive: 5.9 µM [cytotoxic, partial curve] |
